# Test results published in the supplement of paper PMC11417369.
# Some of the results follow.
# System: PfAP2-HC AP2 domain (GST-tagged)
# Assay: gcPBM binding intensity (ln(normalized median fluorescence intensity)); higher = stronger DNA binding
# In short: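 GST-fused DNA-binding domains of P. falciparum, expressed in E. coli, were applied at about 25 μg on average for 1 h to an Agilent 4 × 180k array of primer-extended double-stranded 36-bp intergenic genomic probes and negative controls. Binding intensity is the highest Masliner-normalised natural-log median intensity across replicate spots of either probe orientation, measured with Alexa488 anti-GST antibody and a 488 nm scan.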
row,Sequence,gcPBM binding intensity (ln)
1,GCATAAACGGATAATTAATTATATTATATTATATCA [CACACA_negctrl_site1519],9.62
2,ATTTATTTATATATATTATTTGTTTTAATTTACTTA [XGTACX_negctrl_site246],9.67
3,TATTGTTGTCTTTACACATGCAACAAAAGAAGAAAA [TGCATGCA_site911],9.63
4,TATTCTAATATTTATACACACATAACTTTGATAAAT [CACACA_site6418],9.66
5,TATATATAGCATATTTCACACACACCGAATGAATAT [CACACA_site9182],10.3
6,ATTAATTATTGTAATTGTACATTTTATATATATCCA [XGTACX_site2105],9.58
7,TTTCTTGGGAGACATGCATGTACCAGAACAAAATAA [TGCATGCA_site272],9.54
8,CACCCATAGAAACACACACACGCATAAAAAAAAAAA [CACACA_site1513],10.7
9,TAAAAACAAAAATGCACACATAATAAGCATATGTAT [CACACA_site3469],9.92
10,TTTATTTTTATGGTCACACATATTTTTAAAACTATA [CACACA_site4372],9.77
11,TACAAAATAGTTTACACACACATATATATACATATA [CACACA_site2615],9.95
12,TTTTTTTTTTTATATACTGGAAATATATTTAATTTA [GTGCAC_negctrl_site250],9.46
13,CTTTCCTATTTGACACGTACGAAATTTTACATAAAA [XGTACX_site6689],9.42
14,AAATATATATACACATATATATATATATATATATAT [CACACA_negctrl_site1742],9.72
15,TATGAAATATCGTGCACACACGAATAATATAAGAAT [CACACA_site4842],9.93
16,AAAATAAAAAATATAACACACAATAAATATTTATAT [CACACA_site6986],10.1
17,ACATGAAATGTTTAAAGTACATATATAAATTTTTTT [XGTACX_site4519],9.54
18,ATATATAGATAATCAAGTACATAACAAGATATAAGA [XGTACX_site2186],9.79
19,TACTGATCTTTCTAGGTGCGCTGCTACCATTATCGT [GTGCAC_site9538],9.65
20,AAATGTGAAGTGAATACACACCTAATAAATATAACA [CACACA_site5727],9.77
21,TATATTTAATTATTATGTACTTATAATTTTTGAAAG [XGTACX_site8548],9.24
22,TATGTATTTATCCACTTACATTTTTACTTTTCCATT [CACACA_negctrl_site1141],9.76

row,Sequence,gcPBM binding intensity (ln)
1,TATATATATAATATTACACACATATATTTATATTTT [CACACA_site3460],9.8
2,ATTTATACATGCTAATGTACTTATTTCACCTATATC [XGTACX_site3120],9.87
3,TATGGTATATACAACACACACACATATGTATAAATA [CACACA_site6562],10.5
4,CAAGTATTAATTATGTGTACATATATATATATATAT [XGTACX_site5311],9.97
5,TTAATATTGTATTTCACACATAATTTAATATACTCA [CACACA_site5678],9.68
6,TATAATGAGGATAATAGTACATATGAATACAAAAAA [XGTACX_site3665],9.81
7,TACACAAGCAGACACACACACATATAGATTTATATA [CACACA_site6715],10.3
8,GCCATAAAAATATATACACACATAAAAAAAAATTAT [CACACA_site1176],9.89
9,TCTTAAGGAAAAGAGTGTACAGAAATTTTTATTAAC [XGTACX_site6139],9.45
10,ATCCGAGTGTGAAATACACACATGATAATGTGAATG [CACACA_site919],9.99
11,AATTATATTACAAACTGTACATATATAATTTGTCCA [XGTACX_site6009],9.59
12,TTAAATAAGTAATTATGTACATATAATATTCTTTAT [XGTACX_site5280],9.61
13,TATAGGAATATATGGTGTACCTATAAATCTGACATA [XGTACX_site8111],9.6
14,AAAAATAAAAATTGCACACTAAAAAATTACGCACGA [CACACA_site3418],9.8
15,ATTTATATATTTATACGTACTTATATATTGTTACAT [XGTACX_site6254],10.2
16,TAGAAAATATAAAAATGTACGTAAATAAAATGTGCA [XGTACX_site3459],9.87
17,TTATAATAATAGAACTTTATGTAGAAAAAAGGAAAA [XGTACX_negctrl_site116],9.56
18,ACACATACTAAAATGTTGTGAAATATGATAATGTGA [CACACA_negctrl_site851],9.88
19,TATATATATATATATAGTACATATTAATTAATTTAT [XGTACX_site8198],9.59
20,CACAGACACGGACACACACACACACCCACATATATA [CACACA_site4355],11.5
21,ATATATTTTAAATATATTATTATTGCATTGTGAAAA [TGCATGCA_negctrl_site106],9.34
22,TCTTAAAAAATAGGGACACGTAAATATAATATATAA [CACACA_negctrl_site554],9.59

row,Sequence,gcPBM binding intensity (ln)
1,AAAAAAAAAAAAAAAACACACATATATATATATATA [CACACA_site2436],10.4
2,TTTAAAACCTTACATACACACAAATATGTAAATATA [CACACA_site6464],9.67
3,TTCATATAACCTTATAGTACATAATTAAAAATATAA [XGTACX_site6328],9.32
4,CACGCATATATACATACATGCATATATACATCCATG [TGCATGCA_site667],9.7
5,AAAAAAAAAAAAAAAACACACATATAGGTATAAATA [CACACA_site7528],9.72
6,AAAAAAAAAAAATAGACACACATATTATATATATAT [CACACA_site1419],10.2
7,TATTATTCTATACATTGTACATATTTTATAGTATGT [XGTACX_site73],9.79
8,TTTTCCTTATATTATGCATGCAGGGTTTGACATTAT [TGCATGCA_site826],9.8
9,ATGTGTTGGGAAAAGGCATGCACTTTTTTTTTTTTT [TGCATGCA_site707],9.62
10,TGATAACCTCACAAATGTACGTACGGGGCTAGCATT [XGTACX_site4157],9.82
11,ATATCTATAATAAATACACACATTTATATAGATAAA [CACACA_site7518],9.62
12,AACAGCATTATTTCTTATTTTTTTTTTGATATATTT [GTGCAC_negctrl_site114],9.63
13,AAACTTGACAGACACACACACACATATATAAAAAAA [CACACA_site757],10.4
14,GTTATATTATTCATACGTACCTATATTTCTATTAAC [XGTACX_site3447],9.83
15,TGTGTGTGCTTATTTTGTACATATTAGGTAAATATT [XGTACX_site6329],9.99
16,TTTATGGAATAATCACGTACACACAAGAAAAAAAAA [XGTACX_site985],10.2
17,TTTTTATCTAATCTAATATTATATTATACATATAAT [XGTACX_negctrl_site275],9.61
18,AACTCATAAAATAATGGTACACAAAAAAAATAAATA [XGTACX_site7648],10.1
19,TTTTTTTTTTTCTTTTGTACGTATAAAATTATATAA [XGTACX_site2453],9.58
20,CAAGGAACCAGACACACACACATAAATGTATTTATA [CACACA_site6491],10.6
21,TTAGGCAAGGCGGGGGGTACGTTTTTATATAATTAT [XGTACX_site8029],10.2
22,TTAGATTTATAAGTGTGTACGTAAAATACTTAATAA [XGTACX_site8246],9.59

row,Sequence,gcPBM binding intensity (ln)
1,TCATATAAATACACGTGTACATATATATATTACAGT [XGTACX_site1954],9.91
2,AAAAAATATATATGCACACACAAAAAAACAAATTAA [CACACA_site1278],10.1
3,AGTTTGCATATGGAAGTGCATTACCTTGAACATCAT,9.57
4,AATATAAAAAATAGTTGTACTATATTTAAATATGAC [XGTACX_site2937],9.76
5,ACTAAACGAATAAATTGTACAAAGAAATATATTCAT [XGTACX_site6766],9.88
6,ACTACGTGGATTAGTTCAAGGGAACACGTCCTATAC [CACACA_negctrl_site1427],9.54
7,CAACAAAAGTTATTTACACACAAAAGGCAAGGAAAT [CACACA_site7013],9.95
8,AAAGGAAATAAAAACGCACACAGAAATAATATCTAT [CACACA_site457],10.2
9,ATATTTCATTTTTGTACACACAACGTTGGAGGGTTT [CACACA_site3043],9.81
10,TAAAAAATTACATATTGTACAGGCAAAATTACACAT [XGTACX_site1152],9.71
11,CCCACTAAAAAACACACACACACACCCATATATATA [CACACA_site6140],11
12,ATATGTATTAAGTGTACACATATAATCTATCTTGTT [CACACA_site5329],9.8
13,TTTTTTTTATATAGTAGTACTAATTAGAATTTTTAT [XGTACX_site7476],9.48
14,TATATGTTTTATAGTACACACATAAATGGACATACT [CACACA_site2191],9.72
15,TGAATTTAGATATATACACACAAAAGTATATACAAT [CACACA_site2804],9.89
16,GTTGGTAGGCGGTACGGTACACGTAAAGTTTTTCTT [XGTACX_site7706],9.77
17,ATAAATGACAAATTAACACACATATATTATATATAT [CACACA_site3899],9.84
18,ACCATATAAATAAACACACACACACGGATATAAATA [CACACA_site7157],10.6
19,TACATACATACATACACACATACATATGTATATATA [CACACA_site2480],9.84
20,TAATGCCATAATACGTGTACTTAATATATTAGAACA [XGTACX_site5809],9.58
21,CTCAAATGTTATTGTAGTACCTAAAAAATATATTCT [XGTACX_site1970],9.5
22,TATAATGCTCTTCTTTGTACATATTATGATTATATT [XGTACX_site2332],9.75
